{"source": "the supplement of paper PMC8728848", "binders": {"B1": {"name": "MpAFP NterminalRI GFP (Marinomonas primoryensis) (protein)", "chain": "MSDNQFPFATLGNAIGFITKLDGSVTVQSIDGQERVLKLGDPIFFGETVLTGGSGSVTIAFVDGTDVVIGGDSIVEMTDEIYNTGDNEDLVADSSSEIDALQNAILAGDDPTLIQDAPAAGNTLADQQRVDVSIERNDNSAQAGFGVDTQSSLPTYGYDTDNGNGGQATEREYSAPSLSRTLNQSPLLEHHHHHH"}}, "assay_in_all_cases": "glycan array binding signal (z-score within array); higher = stronger binding", "settings_in_all_cases": "glycan notation: IUPAC condensed, linker removed", "key": {"[1]": {"biological_target": "GlcNAc(a1-6)Gal(b1-4)GlcNAc", "in_short": "(§1)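 Glycan array data were curated from 3228 arrays in the Consortium for Functional Glycomics database and kept only where the protein sequence was available. Glycan names were converted to IUPAC-condensed notation, and columns mapping to the same glycan were averaged. The binding signal is a within-array Z-score, averaged across arrays of the same protein sequence at different concentrations or buffers and across linkers. Negative Z-scores can be read as non-binding.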"}, "[2]": {"biological_target": "GlcNAc(b1-2)Gal(b1-3)GalNAc", "in_short": "as §1"}, "[3]": {"biological_target": "GlcNAc(b1-2)Man(a1-3)[GlcNAc(b1-2)Man(a1-6)]Man(b1-4)GlcNAc(b1-4)GlcNAc", "in_short": "as §1"}, "[4]": {"biological_target": "GlcNAc(b1-2)Man(a1-3)[GlcNAc(b1-2)Man(a1-6)]Man(b1-4)GlcNAc(b1-4)[Fuc(a1-6)]GlcNAc", "in_short": "as §1"}, "[5]": {"biological_target": "GlcNAc(b1-2)Man(a1-3)[GlcNAc(b1-4)][GlcNAc(b1-2)Man(a1-6)]Man(b1-4)GlcNAc(b1-4)GlcNAc", "in_short": "as §1"}, "[6]": {"biological_target": "GlcNAc(b1-2)Man(a1-3)[GlcNAc(b1-4)][GlcNAc(b1-2)Man(a1-6)]Man(b1-4)GlcNAc(b1-4)[Fuc(a1-6)]GlcNAc", "in_short": "as §1"}, "[7]": {"biological_target": "GlcNAc(b1-2)[GlcNAc(b1-4)]Man(a1-3)[GlcNAc(b1-2)Man(a1-6)]Man(b1-4)GlcNAc(b1-4)GlcNAc", "in_short": "as §1"}, "[8]": {"biological_target": "GlcNAc(b1-2)[GlcNAc(b1-4)]Man(a1-3)[GlcNAc(b1-4)][GlcNAc(b1-2)Man(a1-6)]Man(b1-4)GlcNAc(b1-4)GlcNAc", "in_short": "as §1"}, "[9]": {"biological_target": "GlcNAc(b1-2)[GlcNAc(b1-4)]Man(a1-3)[GlcNAc(b1-4)][GlcNAc(b1-2)[GlcNAc(b1-6)]Man(a1-6)]Man(b1-4)GlcNAc(b1-4)GlcNAc", "in_short": "as §1"}, "[10]": {"biological_target": "GlcNAc(b1-2)[GlcNAc(b1-4)]Man(a1-3)[GlcNAc(b1-4)][GlcNAc(b1-2)[GlcNAc(b1-6)]Man(a1-6)]Man(b1-4)GlcNAc(b1-4)[Fuc(a1-6)]GlcNAc", "in_short": "as §1"}, "[11]": {"biological_target": "GlcNAc(b1-2)[GlcNAc(b1-6)]Man(a1-6)[GlcNAc(b1-2)Man(a1-3)]Man(b1-4)GlcNAc(b1-4)GlcNAc", "in_short": "as §1"}, "[12]": {"biological_target": "GlcNAc(b1-2)[GlcNAc(b1-6)]Man(a1-6)[GlcNAc(b1-2)Man(a1-3)]Man(b1-4)GlcNAc(b1-4)[Fuc(a1-6)]GlcNAc", "in_short": "as §1"}, "[13]": {"biological_target": "GlcNAc(b1-2)[GlcNAc(b1-6)]Man(a1-6)[GlcNAc(b1-4)][GlcNAc(b1-2)Man(a1-3)]Man(b1-4)GlcNAc(b1-4)GlcNAc", "in_short": "as §1"}, "GlcNAc(b1-3)Fuc": {"biological_target": "GlcNAc(b1-3)Fuc", "in_short": "as §1"}, "GlcNAc(b1-3)Gal": {"biological_target": "GlcNAc(b1-3)Gal", "in_short": "as §1"}, "[14]": {"biological_target": "GlcNAc(b1-3)Gal(b1-3)GalNAc", "in_short": "as §1"}, "GlcNAc(b1-3)Gal(b1-4)Glc": {"biological_target": "GlcNAc(b1-3)Gal(b1-4)Glc", "in_short": "as §1"}, "[15]": {"biological_target": "GlcNAc(b1-3)Gal(b1-4)GlcNAc", "in_short": "as §1"}, "[16]": {"biological_target": "GlcNAc(b1-3)Gal(b1-4)GlcNAc(b1-2)Man(a1-3)[GlcNAc(b1-3)Gal(b1-4)GlcNAc(b1-2)Man(a1-6)]Man(b1-4)GlcNAc(b1-4)GlcNAc", "in_short": "as §1"}, "[17]": {"biological_target": "GlcNAc(b1-3)Gal(b1-4)GlcNAc(b1-2)Man(a1-3)[GlcNAc(b1-3)Gal(b1-4)GlcNAc(b1-2)Man(a1-6)]Man(b1-4)GlcNAc(b1-4)[Fuc(a1-6)]GlcNAc", "in_short": "as §1"}, "[18]": {"biological_target": "GlcNAc(b1-3)Gal(b1-4)GlcNAc(b1-2)[GlcNAc(b1-3)Gal(b1-4)GlcNAc(b1-6)]Man(a1-6)[GlcNAc(b1-3)Gal(b1-4)GlcNAc(b1-2)Man(a1-3)]Man(b1-4)GlcNAc(b1-4)GlcNAc", "in_short": "as §1"}, "[19]": {"biological_target": "GlcNAc(b1-3)Gal(b1-4)GlcNAc(b1-3)Gal(b1-4)GlcNAc", "in_short": "as §1"}}, "note": "The list shows a part of the results."}
{"binder": "B1", "values": [{"measurement": "glycan array binding signal (z-score)", "setting": "[1]", "result": -0.479}, {"measurement": "glycan array binding signal (z-score)", "setting": "[2]", "result": -0.532}, {"measurement": "glycan array binding signal (z-score)", "setting": "[3]", "result": 0.47}, {"measurement": "glycan array binding signal (z-score)", "setting": "[4]", "result": -0.192}, {"measurement": "glycan array binding signal (z-score)", "setting": "[5]", "result": -0.304}, {"measurement": "glycan array binding signal (z-score)", "setting": "[6]", "result": -0.383}, {"measurement": "glycan array binding signal (z-score)", "setting": "[7]", "result": -0.39}, {"measurement": "glycan array binding signal (z-score)", "setting": "[8]", "result": -0.399}, {"measurement": "glycan array binding signal (z-score)", "setting": "[9]", "result": -0.418}, {"measurement": "glycan array binding signal (z-score)", "setting": "[10]", "result": -0.371}, {"measurement": "glycan array binding signal (z-score)", "setting": "[11]", "result": -0.196}, {"measurement": "glycan array binding signal (z-score)", "setting": "[12]", "result": -0.005}, {"measurement": "glycan array binding signal (z-score)", "setting": "[13]", "result": -0.459}, {"measurement": "glycan array binding signal (z-score)", "setting": "GlcNAc(b1-3)Fuc", "result": -0.339}, {"measurement": "glycan array binding signal (z-score)", "setting": "GlcNAc(b1-3)Gal", "result": -0.489}, {"measurement": "glycan array binding signal (z-score)", "setting": "[14]", "result": -0.475}, {"measurement": "glycan array binding signal (z-score)", "setting": "GlcNAc(b1-3)Gal(b1-4)Glc", "result": -0.41}, {"measurement": "glycan array binding signal (z-score)", "setting": "[15]", "result": 0.317}, {"measurement": "glycan array binding signal (z-score)", "setting": "[16]", "result": 1.46}, {"measurement": "glycan array binding signal (z-score)", "setting": "[17]", "result": 1.26}, {"measurement": "glycan array binding signal (z-score)", "setting": "[18]", "result": 6.32}, {"measurement": "glycan array binding signal (z-score)", "setting": "[19]", "result": -0.558}]}
